Laboratory results published in patent US20220220204A1 (published 2022).

T1: LAG-3 expressed on CHO-K1 cells (UniProt P18627 23-525)
T1 chain: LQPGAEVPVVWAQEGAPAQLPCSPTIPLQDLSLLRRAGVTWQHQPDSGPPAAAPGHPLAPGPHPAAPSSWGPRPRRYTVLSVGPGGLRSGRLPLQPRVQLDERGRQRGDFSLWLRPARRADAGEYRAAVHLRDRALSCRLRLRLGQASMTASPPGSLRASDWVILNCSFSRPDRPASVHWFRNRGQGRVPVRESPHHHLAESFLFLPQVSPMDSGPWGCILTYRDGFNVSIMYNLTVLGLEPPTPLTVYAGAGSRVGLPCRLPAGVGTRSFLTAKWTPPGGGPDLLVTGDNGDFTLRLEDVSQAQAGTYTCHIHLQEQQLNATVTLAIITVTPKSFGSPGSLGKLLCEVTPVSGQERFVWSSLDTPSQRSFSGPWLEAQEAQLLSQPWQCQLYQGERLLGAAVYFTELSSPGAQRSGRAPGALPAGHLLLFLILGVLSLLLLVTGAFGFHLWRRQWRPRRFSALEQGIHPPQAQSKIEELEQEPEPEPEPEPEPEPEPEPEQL


Experiments:
[1] = target: PD-L1 expressed on CHO-K1 cells (UniProt Q9NZQ7); assay: FACS binding
[2] = target: T1, LAG-3 expressed on CHO-K1 cells; assay: FACS binding

UniProt Q9NZQ7, sequence (Q9NZQ7 19-290): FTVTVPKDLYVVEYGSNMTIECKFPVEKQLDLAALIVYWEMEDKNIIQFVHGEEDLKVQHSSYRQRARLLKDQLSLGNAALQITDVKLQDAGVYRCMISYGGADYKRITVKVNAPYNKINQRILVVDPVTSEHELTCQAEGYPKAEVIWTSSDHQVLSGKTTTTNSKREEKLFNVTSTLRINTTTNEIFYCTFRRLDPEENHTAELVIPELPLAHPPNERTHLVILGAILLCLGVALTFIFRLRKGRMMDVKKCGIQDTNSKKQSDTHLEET

Binder	EC50 [1]	EC50 [2]
sLAG3-E-mPDL1LCv1-HCv5 (bispecific antibody) light: EVQLVESGGGLVQPGGSLRLSCAASGYTVSSYCMGWFRQAPGKGREGVSAIDSDGSVSYADSVKGRFTISKDNSKNTLYLQMNSLRAEDTAVYFCAADLCWVDQDQGEYNTWGQGTLVTVSSEPKSSDKTHTSPPSPDIQMTQSPSSLSASVGDRVTITCRASQDVSTAVDWYQQKPGKAPKLLIYSASYRYTGVPDRFSGSGSGTDFTFTISSLQPEDIATYYCQQHYSIPFTFGQGTKLEIKRTVAAPSVFIFPPSDEQLKSGTASVVCLLNNFYPREAKVQWKVDNALQSGNSQESVTEQDSKDSTYSLSSTLTLSKADYEKHKVYACEVTHQGLSSPVTKSFNRGEC heavy: EVQLVQSGAEVKKPGASVKVSCKASGYIFTGYGITWVRQAPGQGLEWMGEIFPRRVQTYYSEKFKGRVTMTADTSTSTAYMELRSLRSDDTAVYYCARDYDPYFALDYWGQGTTVTVSSASTKGPSVFPLAPSSKSTSGGTAALGCLVKDYFPEPVTVSWNSGALTSGVHTFPAVLQSSGLYSLSSVVTVPSSSLGTQTYICNVNHKPSNTKVDKKV[letters of human IgG1 Fc with changes not shown]	0.541 nM	~0.0446 nM
mPDL1HCv1-E-sLAG3 (bispecific antibody) heavy: EVQLVQSGAEVKKPGASVKVSCKASGYIFTGYGITWVRQAPGQGLEWMGEIFPRRVQTYYSEKFKGRVTMTTDTSTSTAYMELRSLRSDDTAVYYCARDYDPYFALDYWGQGTTVTVSSASTKGPSVFPLAPSSKSTSGGTAALGCLVKDYFPEPVTVSWNSGALTSGVHTFPAVLQSSGLYSLSSVVTVPSSSLGTQTYICNVNHKPSNTKVDKKV[letters of human IgG1 Fc with changes not shown]EPKSSDKTHTSPPSPEVQLVESGGGLVQPGGSLRLSCAASGYTVSSYCMGWFRQAPGKGREGVSAIDSDGSVSYADSVKGRFTISKDNSKNTLYLQMNSLRAEDTAVYFCAADLCWVDQDQGEYNTWGQGTLVTVSS light: DIQMTQSPSSLSASVGDRVTITCRASQDVSTAVDWYQQKPGKAPKLLIYSASYRYTGVPDRFSGSGSGTDFTFTISSLQPEDIATYYCQQHYSIPFTFGQGTKLEIKRTVAAPSVFIFPPSDEQLKSGTASVVCLLNNFYPREAKVQWKVDNALQSGNSQESVTEQDSKDSTYSLSSTLTLSKADYEKHKVYACEVTHQGLSSPVTKSFNRGEC	0.359 nM	0.57 nM
sLAG3-E-mPDL1HCv5 (bispecific antibody) heavy: EVQLVESGGGLVQPGGSLRLSCAASGYTVSSYCMGWFRQAPGKGREGVSAIDSDGSVSYADSVKGRFTISKDNSKNTLYLQMNSLRAEDTAVYFCAADLCWVDQDQGEYNTWGQGTLVTVSSEPKSSDKTHTSPPSPEVQLVQSGAEVKKPGASVKVSCKASGYIFTGYGITWVRQAPGQGLEWMGEIFPRRVQTYYSEKFKGRVTMTADTSTSTAYMELRSLRSDDTAVYYCARDYDPYFALDYWGQGTTVTVSSASTKGPSVFPLAPSSKSTSGGTAALGCLVKDYFPEPVTVSWNSGALTSGVHTFPAVLQSSGLYSLSSVVTVPSSSLGTQTYICNVNHKPSNTKVDKKV[letters of human IgG1 Fc with changes not shown] light: DIQMTQSPSSLSASVGDRVTITCRASQDVSTAVDWYQQKPGKAPKLLIYSASYRYTGVPDRFSGSGSGTDFTFTISSLQPEDIATYYCQQHYSIPFTFGQGTKLEIKRTVAAPSVFIFPPSDEQLKSGTASVVCLLNNFYPREAKVQWKVDNALQSGNSQESVTEQDSKDSTYSLSSTLTLSKADYEKHKVYACEVTHQGLSSPVTKSFNRGEC	0.532 nM	~0.137 nM
sLAG3-E-mPDL1HCv1 (bispecific antibody) heavy: EVQLVESGGGLVQPGGSLRLSCAASGYTVSSYCMGWFRQAPGKGREGVSAIDSDGSVSYADSVKGRFTISKDNSKNTLYLQMNSLRAEDTAVYFCAADLCWVDQDQGEYNTWGQGTLVTVSSEPKSSDKTHTSPPSPEVQLVQSGAEVKKPGASVKVSCKASGYIFTGYGITWVRQAPGQGLEWMGEIFPRRVQTYYSEKFKGRVTMTTDTSTSTAYMELRSLRSDDTAVYYCARDYDPYFALDYWGQGTTVTVSSASTKGPSVFPLAPSSKSTSGGTAALGCLVKDYFPEPVTVSWNSGALTSGVHTFPAVLQSSGLYSLSSVVTVPSSSLGTQTYICNVNHKPSNTKVDKKV[letters of human IgG1 Fc with changes not shown] light: DIQMTQSPSSLSASVGDRVTITCRASQDVSTAVDWYQQKPGKAPKLLIYSASYRYTGVPDRFSGSGSGTDFTFTISSLQPEDIATYYCQQHYSIPFTFGQGTKLEIKRTVAAPSVFIFPPSDEQLKSGTASVVCLLNNFYPREAKVQWKVDNALQSGNSQESVTEQDSKDSTYSLSSTLTLSKADYEKHKVYACEVTHQGLSSPVTKSFNRGEC	0.504 nM	0.13 nM

The next binders have a lower EC50 [1] than those just listed; values first:

EC50 [1]	EC50 [2]	Binder
0.241 nM	0.151 nM	mPDL1LCv1-E-sLAG3-HCv5 (bispecific antibody) light: DIQMTQSPSSLSASVGDRVTITCRASQDVSTAVDWYQQKPGKAPKLLIYSASYRYTGVPDRFSGSGSGTDFTFTISSLQPEDIATYYCQQHYSIPFTFGQGTKLEIKRTVAAPSVFIFPPSDEQLKSGTASVVCLLNNFYPREAKVQWKVDNALQSGNSQESVTEQDSKDSTYSLSSTLTLSKADYEKHKVYACEVTHQGLSSPVTKSFNRGECEPKSSDKTHTSPPSPEVQLVESGGGLVQPGGSLRLSCAASGYTVSSYCMGWFRQAPGKGREGVSAIDSDGSVSYADSVKGRFTISKDNSKNTLYLQMNSLRAEDTAVYFCAADLCWVDQDQGEYNTWGQGTLVTVSS heavy: EVQLVQSGAEVKKPGASVKVSCKASGYIFTGYGITWVRQAPGQGLEWMGEIFPRRVQTYYSEKFKGRVTMTADTSTSTAYMELRSLRSDDTAVYYCARDYDPYFALDYWGQGTTVTVSSASTKGPSVFPLAPSSKSTSGGTAALGCLVKDYFPEPVTVSWNSGALTSGVHTFPAVLQSSGLYSLSSVVTVPSSSLGTQTYICNVNHKPSNTKVDKKV[letters of human IgG1 Fc with changes not shown]
0.193 nM	0.172 nM	mPDL1HCv5-E-sLAG3 (bispecific antibody) heavy: EVQLVQSGAEVKKPGASVKVSCKASGYIFTGYGITWVRQAPGQGLEWMGEIFPRRVQTYYSEKFKGRVTMTADTSTSTAYMELRSLRSDDTAVYYCARDYDPYFALDYWGQGTTVTVSSASTKGPSVFPLAPSSKSTSGGTAALGCLVKDYFPEPVTVSWNSGALTSGVHTFPAVLQSSGLYSLSSVVTVPSSSLGTQTYICNVNHKPSNTKVDKKV[letters of human IgG1 Fc with changes not shown]EPKSSDKTHTSPPSPEVQLVESGGGLVQPGGSLRLSCAASGYTVSSYCMGWFRQAPGKGREGVSAIDSDGSVSYADSVKGRFTISKDNSKNTLYLQMNSLRAEDTAVYFCAADLCWVDQDQGEYNTWGQGTLVTVSS light: DIQMTQSPSSLSASVGDRVTITCRASQDVSTAVDWYQQKPGKAPKLLIYSASYRYTGVPDRFSGSGSGTDFTFTISSLQPEDIATYYCQQHYSIPFTFGQGTKLEIKRTVAAPSVFIFPPSDEQLKSGTASVVCLLNNFYPREAKVQWKVDNALQSGNSQESVTEQDSKDSTYSLSSTLTLSKADYEKHKVYACEVTHQGLSSPVTKSFNRGEC
